According to publication PMC4336329 (PLoS ONE, 2015):
Out of some 310,000 compounds screened, about 14,000 (4.5%) showed an effect of 50% or more. Effects have a minus sign here. The list shows a part of the results.

Each compound was assayed against human ether-à-go-go-related gene (hERG) potassium channel (human, UniProt Q12809) (assay: primary screen, population patch clamp on CHO cells stably expressing hERG).
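Note: peak tail current of the secondary pulse compared with the same well before compound.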

Chain of human ether-à-go-go-related gene (hERG) potassium channel (Q12809 whole entry, looked up): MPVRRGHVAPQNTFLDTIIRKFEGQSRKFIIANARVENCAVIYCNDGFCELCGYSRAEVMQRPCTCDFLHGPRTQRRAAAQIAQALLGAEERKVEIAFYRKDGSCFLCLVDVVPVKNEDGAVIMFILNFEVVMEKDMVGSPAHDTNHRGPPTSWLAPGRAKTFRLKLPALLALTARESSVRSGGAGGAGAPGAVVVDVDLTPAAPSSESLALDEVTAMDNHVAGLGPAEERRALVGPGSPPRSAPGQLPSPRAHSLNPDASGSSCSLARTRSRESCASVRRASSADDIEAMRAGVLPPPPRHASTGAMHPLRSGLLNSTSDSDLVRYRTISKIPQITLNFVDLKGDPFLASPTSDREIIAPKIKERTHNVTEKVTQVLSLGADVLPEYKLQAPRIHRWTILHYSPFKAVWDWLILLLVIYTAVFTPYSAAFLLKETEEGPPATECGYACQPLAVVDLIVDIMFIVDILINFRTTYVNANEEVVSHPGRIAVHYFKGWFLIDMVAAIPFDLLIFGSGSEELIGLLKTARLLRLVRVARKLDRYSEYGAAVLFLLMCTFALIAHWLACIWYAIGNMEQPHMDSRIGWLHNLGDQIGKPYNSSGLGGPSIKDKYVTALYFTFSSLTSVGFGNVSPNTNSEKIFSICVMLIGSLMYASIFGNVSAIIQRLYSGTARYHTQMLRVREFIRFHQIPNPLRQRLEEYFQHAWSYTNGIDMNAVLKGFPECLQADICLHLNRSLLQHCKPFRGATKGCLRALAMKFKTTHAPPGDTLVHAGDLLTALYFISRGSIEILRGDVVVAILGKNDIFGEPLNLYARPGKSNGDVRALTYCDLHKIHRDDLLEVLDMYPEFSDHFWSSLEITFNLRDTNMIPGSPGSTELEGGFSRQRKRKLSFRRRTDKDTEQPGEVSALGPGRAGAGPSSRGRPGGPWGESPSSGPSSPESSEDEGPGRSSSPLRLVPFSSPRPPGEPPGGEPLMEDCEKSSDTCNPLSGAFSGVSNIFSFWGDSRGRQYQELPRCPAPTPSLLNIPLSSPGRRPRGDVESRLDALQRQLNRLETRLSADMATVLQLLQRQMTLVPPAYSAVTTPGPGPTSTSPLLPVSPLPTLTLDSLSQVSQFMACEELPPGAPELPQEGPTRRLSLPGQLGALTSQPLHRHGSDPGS

SMILES | hERG current change (%, negative = inhibition) at 10uM
Cn1cccc1/C=N/NC(=O)Cn1cnc2ccccc21 | -9.89%
O=C(O)c1cccc(S(=O)(=O)N2CCOCC2)c1 | 2.52%
COC(=O)c1ccc(-c2noc(CN(Cc3ccccn3)CC3CCCO3)n2)cc1 (centres unmarked) | -75%
Cn1nnc(NC(=O)C(c2ccccc2)c2ccccc2)n1 | 8.03%
CC(=O)N1[C@H](Cc2ccccc2)C=C[C@]1(C)C(=O)NCCc1c[nH]c2ccccc12 | -7.5%
O=C(COC(=O)c1ccccc1Nc1ccc(SC(F)F)cc1)NC1CC1 | -19.4%
Cn1c(COc2ccccc2)nnc1SCC(=O)NCc1ccccc1 | -21.4%
COc1ccc(CN(Cc2ccc(C(=O)O)cc2)C(=S)Nc2ccccc2Cl)cc1OC | 9.81%
COc1cc(S(=O)(=O)NC2CCCCC2C)ccc1-n1cnnn1 (centres unmarked) | -7.98%
O=C(N/C(=C\c1ccc(Br)cc1)C(=O)N1CCCC1)c1cccs1 | -27.7%
O=C(NC1CCCCC1)C1CCC(=O)N(Cc2cccc(C(F)(F)F)c2)C1 (centres unmarked) | 5.98%
N#C/C(=C1/CCCCCN1)c1nnc2n1CCCCC2 | 16.8%
COCCN(C(=O)c1cccc(-n2cnnn2)c1)c1c(N)n(CC(C)C)c(=O)[nH]c1=O | 2.86%
O=C(NC(=S)Nc1ccc(N2CCN(C(=O)c3ccccc3)CC2)cc1)c1cccs1 | 9.96%
COc1ccc(/C=C/C(=O)Nc2ccc(-n3nncc3-c3ccc(OC)c(OC)c3)cc2)cc1OC | -4.84%
CSc1ccccc1NC(=O)CN(C)C(=O)CCc1c[nH]c2ccccc12 | 0.0989%
N/C(=N\OC(=O)CCn1cccc(C(F)(F)F)c1=O)c1ccc(OC(F)(F)F)cc1 | -22.2%
O=C(CCc1ccccc1)OCC(=O)c1cccc([N+](=O)[O-])c1 | 12.3%
O=C(Nc1ccc(Cl)cc1)c1cc(S(=O)(=O)N2CCOCC2)cs1 | -51.2%
C=Cn1cc[n+](CC(=O)c2ccc(Cl)cc2)c1.[Br-] | 12%
CN(c1ccc(C(=O)N2CCN(Cc3ccccc3)CC2)cc1)S(=O)(=O)c1ccc(Cl)cc1 | -24.9%
COc1ccc(C)cc1NC(=O)c1nnn(Cc2cccc(F)c2)c1N | 7.11%

SMILES | hERG current change (%, negative = inhibition) at 10uM
O=C(OCC(=O)N1CCCCCC1)c1cnc(Cl)c(Cl)c1 | -2.83%
CCOc1ccc(C)cc1S(=O)(=O)n1nc(C)cc1C | -2.24%
O=C(CNC(=O)CNC(=O)c1ccc(Cl)cc1Cl)NCc1cccc(Cl)c1 | -1.95%
O=C(NCCN1CCOCC1)N1CCOCC1 | -12.4%
Cl.O=C1C2C3C=CC(C4CC34)C2C(=O)N1CCCCN1CCN(c2ccc(F)cc2)CC1 (centres unmarked) | -69.3%
Cc1ccc(C(O)(C(=O)NNC(=O)CN2CCN(C)CC2)c2ccc(C)cc2)cc1 | 8.88%
Cl.NC1=NC2(CCCCC2)N(c2cccc(Cl)c2)C(N)=N1 | 27.9%
O=C(NN=c1c(=O)c2ccccc2c1=O)c1ccccc1 | -23.4%
CC(C)[C@H](NC(=O)[C@@H]1CSC2c3ccccc3C(=O)N21)C(=O)NC1CCCC1 (some centres unmarked) | 7.68%
CCc1ccc2c(c1)C(O)(CC(=O)c1cccs1)C(=O)N2 (centres unmarked) | 7.54%
CCc1nnc(NC(=O)C(C)C)s1 | -0.304%
COc1cc2nc(N3CCN(C(=O)c4ccco4)CC3)nc(N)c2cc1OC.Cl.O | -28.2%
COC(=O)c1cc(OC)c(OC)cc1NCC(=O)Nc1ccc(C)cc1 | -7.1%
Cc1ccc(NC(=O)CCNC(=O)c2ccccc2Cl)cc1S(=O)(=O)N1CCCCCC1 | -6.13%
COc1c(/C=N/Nc2ccc([N+](=O)[O-])cc2[N+](=O)[O-])c(C)nn1-c1ccccc1 | 1%
O=C(COC(=O)C1(c2ccc(Cl)cc2)CCCC1)NC1CCS(=O)(=O)C1 (centres unmarked) | -29.1%
C[N+]1(C)C2CCC1CC(OC(=O)c1ccco1)C2.[Br-] (centres unmarked) | 7.81%
COc1ccccc1OCc1nc2ccccc2n1C | 3.46%
CCCn1c(SCC(=O)Nc2ccc(OCC)cc2)nnc1C(C)C | -9.81%
CC(=O)Nc1ccc(S(=O)(=O)N2CCCC2C(=O)Nc2ccc(F)cc2)cc1 (centres unmarked) | 11.2%
Cc1cccc(NC(=S)NNC(=O)CCn2cc(C)cn2)c1 | 5.5%
CC1CCCN(Cc2c(O)ccc3c(=O)c(-c4nc5ccccc5s4)c(N)oc23)C1 (centres unmarked) | -0.886%

SMILES | hERG current change (%, negative = inhibition) at 10uM
O=C(Cn1cnc2ccccc2c1=O)NCCCN1CCCC1=O | -5.14%
CC1CN=C(NC(=O)c2cccc([N+](=O)[O-])c2)S1.Cl (centres unmarked) | 4.64%
Cc1ccc(C)c(NC(=O)C2CCN(S(=O)(=O)c3ccc4c(c3)NC(=O)CO4)CC2)c1 | -6.02%
Cc1ccc(CC(=O)N2CCN(c3ccccn3)CC2)cc1 | -1.99%
CC(=O)Nc1sc2c(c1C(c1ccc(Cl)cc1)N1CCOCC1)CCCC2 (centres unmarked) | -3.98%
CN1CCN(S(=O)(=O)c2cccc(C(=O)Nc3cccc([N+](=O)[O-])c3)c2)CC1 | -15.6%
COc1cc(/C=C/C(=O)OCC(=O)NCCC2=CCCCC2)ccc1O | 4.58%
Cc1ccccc1N(CC(=O)NCc1ccco1)C(=O)CNS(=O)(=O)c1ccc(F)cc1 | -16%
COc1ccc(CNn2c(-c3cccs3)nc3ccccc3c2=O)cc1OC | -4.52%
CCN1CCN(c2cc3nc(C)n(Cc4ccccc4)c(=O)c3cc2NC(=O)c2ccccc2F)CC1 | -4.27%
O=[N+]([O-])c1cccc(-c2ccc(/C=N/NC(=S)Nc3cccc(F)c3)o2)c1 | 10.6%
COc1ccc2cc(C(C)=O)c(=O)oc2c1 | -11.4%
Cc1csc(SCC(=O)Nc2oc(C)c3c(C)n[nH]c(=O)c23)n1 | -7.82%
O=[N+]([O-])c1ccc(C2=CSC3=NCCN23)cc1 | -32.9%
O=C(c1ccc(-c2ccccc2)cc1)N1CCCC1 | 7.81%
COc1cc(OC)c(NC(=O)Cn2cccc2)cc1Cl | 5.76%
CC(NCC(=O)Nc1cc(S(=O)(=O)N2CCOCC2)ccc1N1CCOCC1)c1ccco1 (centres unmarked) | -27.7%
Cc1ccc(NC(=O)C2CC(=O)n3c(nc4ccccc43)N2)cc1 (centres unmarked) | 8.39%
Cc1cc(C(=O)OCC(=O)Nc2ncc(C(F)(F)F)cc2Cl)c(C)o1 | 0.866%
CCOC(=O)C1=C(CS(=O)(=O)c2ccccc2)NC(=O)NC1c1cc(OC)c(O)c(OC)c1 (centres unmarked) | 15.6%
COc1cccc(CC(=O)OCC(=O)N(C)CC(=O)Nc2ccc(F)cc2)c1 | -9.44%
CCN(CC)c1ccc(C2C(C(=O)OC)=C(C)NC(C)=C2C(=O)OC)cc1 | -4.04%

SMILES | hERG current change (%, negative = inhibition) at 10uM
CC(=O)Nc1ccc(-c2cn3ccsc3n2)cc1 | 6.9%
O=C(Nc1ccc(F)cc1)C1CCN(S(=O)(=O)c2cccc3nonc23)CC1 | 2.91%
Cc1cc(NCc2ccc3c(c2)OCO3)n2nc(C)nc2n1 | -14.6%
COc1ccc(C)cc1S(=O)(=O)N1CCN(C(=O)c2ncoc2-c2ccc(F)cc2)CC1 | 23.5%
CC(=O)N1c2ccc(S(=O)(=O)NCCC(=O)Nc3ccc(F)cc3C)cc2CC1C (centres unmarked) | 0.977%
CCCOc1ccc(NC(=O)CC2C(=O)N(C)C(=S)N2Cc2ccc3c(c2)OCO3)cc1 (centres unmarked) | 2.31%
COC(=O)C1=C(N)Oc2cc(C)n(CC3CCCO3)c(=O)c2C1c1ccccc1 (centres unmarked) | 11.3%
N#Cc1cc2cc3c(cc2nc1NCCNC(=S)NCCCN1CCOCC1)OCO3 | 14.2%
Cc1cc(Nc2ccccc2)n(-c2ccc(Br)cc2)n1 | 2.41%
O=c1cc(N2CCCCC2)c(-c2ccccc2)nn1Cc1ccccc1 | -18.6%
O=C(c1ccccc1)c1ccc(Oc2ncccn2)cc1 | 13%
COc1ccc(OCC(O)CNC(=O)c2ccc(Br)cc2)cc1 (centres unmarked) | -7.75%
C[C@H](NC(=O)c1ccco1)C(=O)N1CCCC1 | 21.7%
CCOc1ccc(C(=O)Nc2nnc(C3=COCCO3)o2)cc1 | 15.9%
CCCCC1(Cc2ccc(OC)c([N+](=O)[O-])c2)C(=O)N(c2ccccc2)N(c2ccccc2)C1=O | 1.71%
CC(C)NC(=O)C1(c2ccccc2)CC1(Cl)Cl (centres unmarked) | 14.5%
Cc1nn(C)c(Cl)c1CN1CCCC(C(=O)Nc2cccc(-n3cccn3)c2)C1 (centres unmarked) | -50.2%
CCOc1cc(/C=N/NC(=O)CSc2nncn2C)ccc1OCc1cccc(C)c1 | -15.5%
Cn1cc(C(=O)c2cccc(Cl)c2)cc1C#N | 12.4%
CC(=O)N1CCN(c2ccccc2NC(=O)c2ccc(-c3cccc([N+](=O)[O-])c3)o2)CC1 | -75.4%
